From the supplement of paper PMC10037445
The full ranking holds about 2,900 compounds; the median of “NF-kB SEAP reporter activity, fold change vs agonist alone” is about 0.99, and the highest 2% start at about 2.6. The list shows a part of the results.

What was measured:
RAW-Dual [1] = test: NF-kB SEAP reporter activity, fold change vs agonist alone; higher = enhanced NF-kB activity; details: library stock concentration (final ~1000-fold dilution): 10 mM
In short: (§1)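 Library stock was pin-tooled at 50 nL into 384-well plates of RAW-Dual macrophages (50,000 cells/well, DMEM), followed 1 h later by a PRR agonist, and the cells were kept at 37 °C, 5% CO2. Supernatant collected after 20 hours was read for IRF by QuantiLuc luminescence and for NF-κB by QuantiBlue absorbance at 620 nm. Reporter activity is fold change over agonist-alone wells, and a well counted as cytotoxic when its IncuCyte confluency was below 70% of agonist controls in both mask sets.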

RAW-Dual [2] = test: NF-kB SEAP reporter activity, fold change vs agonist alone; cytotoxicity flag (confluency mask): not cytotoxic; higher = enhanced NF-kB activity
In short: as §1

RAW-Dual [3] = test: NF-kB SEAP reporter activity, fold change vs agonist alone; cytotoxicity flag (confluency mask): cytotoxic (confluency <70% of control); higher = enhanced NF-kB activity
In short: as §1

[4] = cytotoxicity flag (confluency mask): not cytotoxic, agonist: Imiquimod (TLR7) […]
[5] = cytotoxicity flag (confluency mask): not cytotoxic, agonist: MPLA (TLR4) […]
[6] = agonist: ODN 1826 (TLR9) 0.5 ug/mL
[7] = agonist: Pam2CSK4 (TLR2/6) 0.1 ug/mL
[8] = agonist: Pam3CSK4 (TLR2/1) 0.1 ug/mL
[9] = cytotoxicity flag (confluency mask): cytotoxic (confluency <70% of control), agonist: Imiquimod (TLR7) […]
[10] = cytotoxicity flag (confluency mask): cytotoxic (confluency <70% of control), agonist: MPLA (TLR4) […]

`Cc1ccc(S(=O)(=O)O)cc1.Cn1cc(-c2ccc(F)c(C(F)(F)F)c2)nc1C1CCN(c2ncnc3[nH]ncc23)CC1` was tested, and the “NF-kB SEAP reporter activity” value (RAW-Dual [1]; [4]) was 0.152 and the “NF-kB SEAP reporter activity” value (RAW-Dual [1]; [5]) was 0.981.
With `Cc1ccc(S(=O)(=O)O)cc1.Cn1cc(-c2ccc(F)c(C(F)(F)F)c2)nc1C1CCN(c2ncnc3[nH]ncc23)CC1` (library stock concentration (final ~1000-fold dilution): 10 mM) the “NF-kB SEAP reporter activity” value (RAW-Dual [2]; agonist: LPS (TLR4) 0.1 ug/mL) was 0.957, the “NF-kB SEAP reporter activity” value (RAW-Dual [2]; [6]) was 1.08 and the “NF-kB SEAP reporter activity” value (RAW-Dual [2]; [7]) was 0.832. The “NF-kB SEAP reporter activity” value (RAW-Dual [2]; [8]) was 0.996.
In the case of `COC(=O)NC(C(=O)NC(Cc1ccccc1)C(O)CN(Cc1ccc(-c2ccccn2)cc1)NC(=O)C(NC(=O)OC)C(C)(C)C)C(C)(C)C.O=S(=O)(O)O` (configuration not stated) (library stock concentration (final ~1000-fold dilution): 10 mM), the “NF-kB SEAP reporter activity” value (RAW-Dual [2]; agonist: LPS (TLR4) 0.1 ug/mL) is reported as 1.54, the “NF-kB SEAP reporter activity” value (RAW-Dual [2]; [6]) is reported as 2.67 and the “NF-kB SEAP reporter activity” value (RAW-Dual [2]; [7]) is reported as 1.47. The “NF-kB SEAP reporter activity” value (RAW-Dual [2]; [8]) was 1.68.
For `COC(=O)NC(C(=O)NC(Cc1ccccc1)C(O)CN(Cc1ccc(-c2ccccn2)cc1)NC(=O)C(NC(=O)OC)C(C)(C)C)C(C)(C)C.O=S(=O)(O)O` (configuration not stated), the “NF-kB SEAP reporter activity” value (RAW-Dual [1]; [4]) was 2.01 and the “NF-kB SEAP reporter activity” value (RAW-Dual [1]; [5]) was 1.56.
In the case of `O=C(NOCC(O)CO)c1cc(Br)c(F)c(F)c1Nc1ccc(I)cc1F` (configuration not stated) (library stock concentration (final ~1000-fold dilution): 10 mM), the “NF-kB SEAP reporter activity” value (RAW-Dual [2]; agonist: LPS (TLR4) 0.1 ug/mL) is reported as 0.197, the “NF-kB SEAP reporter activity” value (RAW-Dual [2]; [6]) is reported as 0.265 and the “NF-kB SEAP reporter activity” value (RAW-Dual [2]; [7]) is reported as 0.08. The “NF-kB SEAP reporter activity” value (RAW-Dual [2]; [8]) was 0.123.
With `O=C(NOCC(O)CO)c1cc(Br)c(F)c(F)c1Nc1ccc(I)cc1F` (configuration not stated) the “NF-kB SEAP reporter activity” value (RAW-Dual [1]; [4]) was 0.202 and the “NF-kB SEAP reporter activity” value (RAW-Dual [1]; [5]) was 0.229.
With `O=C(O)COc1ccc(Br)cc1/C=C1\SC(=S)N(Cc2cccnc2)C1=O` the “NF-kB SEAP reporter activity” value (RAW-Dual [1]; [4]) was 0.936 and the “NF-kB SEAP reporter activity” value (RAW-Dual [1]; [5]) was 1.05.
`O=C(O)COc1ccc(Br)cc1/C=C1\SC(=S)N(Cc2cccnc2)C1=O` (library stock concentration (final ~1000-fold dilution): 10 mM) was tested, and the “NF-kB SEAP reporter activity” value (RAW-Dual [2]; agonist: LPS (TLR4) 0.1 ug/mL) was 1.07, the “NF-kB SEAP reporter activity” value (RAW-Dual [2]; [6]) was 0.802 and the “NF-kB SEAP reporter activity” value (RAW-Dual [2]; [7]) was 0.779. For the same compound, the “NF-kB SEAP reporter activity” value (RAW-Dual [2]; [8]) was 0.974.
With `CN(C)CC(c1ccc(O)cc1)C1(O)CCCCC1` (configuration not stated) (library stock concentration (final ~1000-fold dilution): 10 mM) the “NF-kB SEAP reporter activity” value (RAW-Dual [2]; agonist: LPS (TLR4) 0.1 ug/mL) was 0.8, the “NF-kB SEAP reporter activity” value (RAW-Dual [2]; [6]) was 0.892 and the “NF-kB SEAP reporter activity” value (RAW-Dual [2]; [7]) was 0.986. The “NF-kB SEAP reporter activity” value (RAW-Dual [2]; [8]) was 1.1.
With `CN(C)CC(c1ccc(O)cc1)C1(O)CCCCC1` (configuration not stated) the “NF-kB SEAP reporter activity” value (RAW-Dual [1]; [4]) was 0.914 and the “NF-kB SEAP reporter activity” value (RAW-Dual [1]; [5]) was 0.997.
With `O=C(O)CCC(=O)OCC(NC(=O)C(Cl)Cl)C(O)c1ccc([N+](=O)[O-])cc1` (configuration not stated) (library stock concentration (final ~1000-fold dilution): 10 mM) the “NF-kB SEAP reporter activity” value (RAW-Dual [2]; agonist: LPS (TLR4) 0.1 ug/mL) was 1.32, the “NF-kB SEAP reporter activity” value (RAW-Dual [2]; [6]) was 0.936 and the “NF-kB SEAP reporter activity” value (RAW-Dual [2]; [7]) was 1.24. The “NF-kB SEAP reporter activity” value (RAW-Dual [2]; [8]) was 1.14.
For `O=C(O)CCC(=O)OCC(NC(=O)C(Cl)Cl)C(O)c1ccc([N+](=O)[O-])cc1` (configuration not stated), the “NF-kB SEAP reporter activity” value (RAW-Dual [1]; [5]) was 1.03.
With `OC1C=C2CCN3Cc4cc5c(cc4C(C1O)C23)OCO5` (configuration not stated) (library stock concentration (final ~1000-fold dilution): 10 mM) the “NF-kB SEAP reporter activity” value (RAW-Dual [3]; agonist: LPS (TLR4) 0.1 ug/mL) was 1.54, the “NF-kB SEAP reporter activity” value (RAW-Dual [3]; [6]) was 1.05 and the “NF-kB SEAP reporter activity” value (RAW-Dual [3]; [7]) was 0.33. The “NF-kB SEAP reporter activity” value (RAW-Dual [3]; [8]) was 0.552.
`OC1C=C2CCN3Cc4cc5c(cc4C(C1O)C23)OCO5` (configuration not stated) was tested, and the “NF-kB SEAP reporter activity” value (RAW-Dual [1]; [9]) was 2.07 and the “NF-kB SEAP reporter activity” value (RAW-Dual [1]; [10]) was 1.61.
In the case of `CCCCC(C=O)NC(=O)C(CC(C)C)NC(=O)OCc1ccccc1` (configuration not stated) (library stock concentration (final ~1000-fold dilution): 10 mM), the “NF-kB SEAP reporter activity” value (RAW-Dual [2]; agonist: LPS (TLR4) 0.1 ug/mL) is reported as 1.06, the “NF-kB SEAP reporter activity” value (RAW-Dual [2]; [6]) is reported as 1.23 and the “NF-kB SEAP reporter activity” value (RAW-Dual [2]; [7]) is reported as 1.06. For the same compound, the “NF-kB SEAP reporter activity” value (RAW-Dual [2]; [8]) was 1.26.
For `CCCCC(C=O)NC(=O)C(CC(C)C)NC(=O)OCc1ccccc1` (configuration not stated), the “NF-kB SEAP reporter activity” value (RAW-Dual [1]; [4]) was 0.529 and the “NF-kB SEAP reporter activity” value (RAW-Dual [1]; [5]) was 1.21.
In the case of `Cc1sc2c(c1C)C(c1ccc(Cl)cc1)=NC(CC(=O)NCCCCNC(=O)COc1cccc3c1C(=O)N(C1CCC(=O)NC1=O)C3=O)c1nnc(C)n1-2` (configuration not stated) (library stock concentration (final ~1000-fold dilution): 10 mM), the “NF-kB SEAP reporter activity” value (RAW-Dual [3]; agonist: LPS (TLR4) 0.1 ug/mL) is reported as 7.56, the “NF-kB SEAP reporter activity” value (RAW-Dual [3]; [6]) is reported as 3.05 and the “NF-kB SEAP reporter activity” value (RAW-Dual [3]; [8]) is reported as 3.03.
`Cc1sc2c(c1C)C(c1ccc(Cl)cc1)=NC(CC(=O)NCCCCNC(=O)COc1cccc3c1C(=O)N(C1CCC(=O)NC1=O)C3=O)c1nnc(C)n1-2` (configuration not stated) was tested, and the “NF-kB SEAP reporter activity” value (RAW-Dual [1]; [10]) was 2.59.
In the case of `CCCCCCCCCCCC(CC1OC(=O)C1CCCCCC)OC(=O)C(CC(C)C)NC=O` (configuration not stated), the “NF-kB SEAP reporter activity” value (RAW-Dual [1]; [4]) is reported as 0.823 and the “NF-kB SEAP reporter activity” value (RAW-Dual [1]; [5]) is reported as 0.902.
For `CCCCCCCCCCCC(CC1OC(=O)C1CCCCCC)OC(=O)C(CC(C)C)NC=O` (configuration not stated) (library stock concentration (final ~1000-fold dilution): 10 mM), the “NF-kB SEAP reporter activity” value (RAW-Dual [2]; agonist: LPS (TLR4) 0.1 ug/mL) was 1.07, the “NF-kB SEAP reporter activity” value (RAW-Dual [2]; [6]) was 1.02 and the “NF-kB SEAP reporter activity” value (RAW-Dual [2]; [7]) was 0.959. For the same compound, the “NF-kB SEAP reporter activity” value (RAW-Dual [2]; [8]) was 0.978.
`CN(C)CCOC(=O)COc1ccc(Cl)cc1.Cl` was tested, and the “NF-kB SEAP reporter activity” value (RAW-Dual [1]; [4]) was 1.09 and the “NF-kB SEAP reporter activity” value (RAW-Dual [1]; [5]) was 1.09.
`CN(C)CCOC(=O)COc1ccc(Cl)cc1.Cl` (library stock concentration (final ~1000-fold dilution): 10 mM) was tested, and the “NF-kB SEAP reporter activity” value (RAW-Dual [2]; agonist: LPS (TLR4) 0.1 ug/mL) was 1.27, the “NF-kB SEAP reporter activity” value (RAW-Dual [2]; [6]) was 1.08 and the “NF-kB SEAP reporter activity” value (RAW-Dual [2]; [7]) was 1.24. For the same compound, the “NF-kB SEAP reporter activity” value (RAW-Dual [2]; [8]) was 1.
In the case of `COc1cc(-c2oc3cc(O)cc(O)c3c(=O)c2OC2OC(CO)C(O)C(O)C2OC2OC(C)C(O)C(O)C2O)ccc1O` (configuration not stated), the “NF-kB SEAP reporter activity” value (RAW-Dual [1]; [4]) is reported as 0.928 and the “NF-kB SEAP reporter activity” value (RAW-Dual [1]; [5]) is reported as 1.05.
With `COc1cc(-c2oc3cc(O)cc(O)c3c(=O)c2OC2OC(CO)C(O)C(O)C2OC2OC(C)C(O)C(O)C2O)ccc1O` (configuration not stated) (library stock concentration (final ~1000-fold dilution): 10 mM) the “NF-kB SEAP reporter activity” value (RAW-Dual [2]; agonist: LPS (TLR4) 0.1 ug/mL) was 1.2, the “NF-kB SEAP reporter activity” value (RAW-Dual [2]; [6]) was 0.987 and the “NF-kB SEAP reporter activity” value (RAW-Dual [2]; [7]) was 1.01. The “NF-kB SEAP reporter activity” value (RAW-Dual [2]; [8]) was 0.949.
`CCN1CCN(Cc2ccc(-c3cc4c(NC(C)c5ccccc5)ncnc4[nH]3)cc2)CC1` (configuration not stated) was tested, and the “NF-kB SEAP reporter activity” value (RAW-Dual [1]; [4]) was 1.59 and the “NF-kB SEAP reporter activity” value (RAW-Dual [1]; [5]) was 0.93.
With `CCN1CCN(Cc2ccc(-c3cc4c(NC(C)c5ccccc5)ncnc4[nH]3)cc2)CC1` (configuration not stated) (library stock concentration (final ~1000-fold dilution): 10 mM) the “NF-kB SEAP reporter activity” value (RAW-Dual [2]; agonist: LPS (TLR4) 0.1 ug/mL) was 0.832, the “NF-kB SEAP reporter activity” value (RAW-Dual [2]; [6]) was 0.215 and the “NF-kB SEAP reporter activity” value (RAW-Dual [2]; [7]) was 1.02. The “NF-kB SEAP reporter activity” value (RAW-Dual [2]; [8]) was 1.01.
`CN(CCNCc1cn(Cc2ccc(Cl)cc2)nn1)CCNc1ccnc2cc(Cl)ccc12.O=C(O)C(F)(F)F` was tested, and the “NF-kB SEAP reporter activity” value (RAW-Dual [1]; [9]) was 1.52 and the “NF-kB SEAP reporter activity” value (RAW-Dual [1]; [10]) was 2.19.
